In PubChem BioAssay (NCI):
Values joined by “and” are separate entries in the source; they are usually repeats but may differ in a detail not shown here. Equal values may be shown once.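 Compound exposure: 48 hours, 5 concentrations, 96-well plates. GI50 marks 50% less growth. TGI marks complete inhibition of growth.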

The compounds below were run on NCI-H322M lung (assay: growth of human tumour cells (NCI), 48 h).

Row | SMILES | TGI | GI50
1 | CC(=O)Oc1ccc(CO)cc1OC(C)=O | > 100 µM | 
2 | CCCCCCCCCCCCCC(=O)C(C)N (centres undefined) | 20.9 µM | 6.9 µM
3 | CCCCCCNc1nc(N2CCOCC2)c2[nH]c(NCCCCCC)nc2n1 | 3.6 µM | 1.81 µM
4 | CO[C@@]12C[C@H]3[C@@H]([C@@H](O)[C@@H](OC(=O)/C=C/c4ccccc4)[C@@]4(O)C(C)(C)CCC[C@]34C)[C@@H](C)C1=CC(=O)O2 | 46.7 µM | 5.1 µM
5 | C1=CC(=[N+]2N=C(c3ccccc3)CC2c2ccccc2)C=CC1=C1SC(c2ccccc2)(c2ccccc2)c2ccccc21 (centres undefined) | > 100 µM | 
6 | CC(C)(C)OC(=O)CN1CCc2c(sc3ncnc(N/N=C/c4cccc5ccccc45)c23)C1 | > 33.3 µM | 3.46 µM
7 | CC(=O)C(=[N+]=[N-])C(=O)OCCOC(=O)C(=[N+]=[N-])C(C)=O | > 1 µM | 
8 | CCCCCCCCCCCC(=O)c1c(O)cccc1O | 49.5 µM | 
9 | CCCCCCCCCCCCn1[nH]c(C)c(C(=S)SCCCCCCCC)c1=O | > 100 µM | 
10 | CC(CN1CCN(CC(C)Nc2ccnc3cc(Cl)ccc23)CC1)Nc1ccnc2cc(Cl)ccc12 (centres undefined) | > 37 µM | 
11 | O=C(Nc1cccc(O)c1)c1cccc(NC2=C(Cl)C(=O)N(Cc3ccccc3)C2=O)c1 | 24.2 µM | 11.9 µM
12 | NC(Cc1ccnnc1)C(=O)O (centres undefined) | > 100 µM | 
13 | Cc1ccc(NC(=O)C2C(=O)N(c3ccc(C)c(C)c3)C(=O)/C2=N\NC(N)=S)cc1C (centres undefined) | > 100 µM | 
14 | C(=C\c1nccc2c1[nH]c1ccccc12)/c1ccccc1 | 56.2 µM | 6.19 µM
15 | COc1cc2ccc1OCc1cccc(n1)COc1ccc(cc1OC)C=Nc1ccc(cc1)-c1ccc(cc1)N=C2 | > 100 µM | 
16 | CCCCCCCCCCCC(O)=C1C(=O)CC(O)CC1=O (centres undefined) | > 100 µM | 
17 | C/C(CC(=O)NC1=CC=C(NC(=O)C/C(C)=N\Nc2ccccc2)CC1)=N/Nc1ccccc1 | > 100 µM | 
18 | COc1ccc(NC(=O)CC(=O)N/N=C/c2ccc(N(CCC#N)S(=O)(=O)c3ccccc3)cc2)cc1 | > 100 µM | 
19 | CCCCCCCCCCCCCCCC(=O)OC(COC(C)=O)CO[P+](=O)O (centres undefined) | > 100 µM | 
20 | COc1cc2c([C@@H](OC(=O)c3ccccc3)c3ccc4c(c3)OCO4)nccc2c(OC)c1OC | > 100 µM | 
21 | O=S(=O)(NC1OCCCC1I)c1ccccc1 (centres undefined) | > 100 µM | 
22 | COc1ccc(CC(NC(=O)[C@H](C)NC(=O)CN2CCOCC2)C(=O)N[C@@H](Cc2ccccc2)C(=O)[C@@]2(C)CO2)cc1 (some centres undefined) | 5.71 µM | 1.25 µM
23 | COc1ccc(C2c3cc4c(cc3OC(O)(CO)C2C(=O)O)OCO4)cc1 (centres undefined) (tested in a mixture with another compound) | > 100 µM | 
24 | COc1cc(/C=C2\CN(S(=O)(=O)c3ccccc3)C/C(=C\c3cc(CN4CCCCC4)c(O)c(OC)c3)C2=O)cc(CN2CCCCC2)c1O | 3.12 µM | 1.7 µM
25 | O=C(Cn1c2ccc(Br)cc2c2nc3ccccc3nc21)N/N=C/c1ccccc1 | > 100 µM | 
26 | COC(=O)c1ccccc1NC(=O)C(=O)CC(=O)CC(c1ccccc1)c1c(O)c2ccccc2oc1=O (centres undefined) | > 100 µM | 
27 | CC1(C)CC(=O)c2c(nc(SSc3nc4c(c(-c5ccc(Br)cc5)c3C#N)C(=O)CC(C)(C)C4)c(C#N)c2-c2ccc(Br)cc2)C1 | > 10 µM | 

Row | SMILES | TGI | GI50
28 | CC(/C=N\NC(=S)N(C)C)=N/NC(=S)N(C)C | > 92.1 µM | 
29 | O=C1C(=O)c2ccccc2C(O)=C1CC=C(Cl)Cl | > 77.9 µM and 211 µM and > 100 µM | 12.3 µM and 17 µM
30 | Cn1c2ccccc2c(=O)c2c([N+](=O)[O-])ccc(NCCN)c21 | 22.2 µM | 
31 | CC(=O)NC(CCCNC(=O)NCCCl)C(=O)NCc1ccccc1 (centres undefined) | > 100 µM | 
32 | Brc1ccc2c(c1)C1C(CO2)C(c2ccccc2)=NN1c1ccccc1 (centres undefined) | > 100 µM | 
33 | Cc1nc(Nc2ccccc2)sc1C(=O)NNc1ccc([N+](=O)[O-])cc1[N+](=O)[O-] | > 100 µM | 
34 | C[C@@H]1OC(=O)C[C@H]2CC(=O)N(CCC3CN(S(=O)(=O)C(F)(F)F)c4ccccc43)C[C@@H]21 (some centres undefined) | > 100 µM | 
35 | CC(=O)Oc1cc(C)c(OC(C)=O)c2c1[C@H]1CC[C@]3(C)[C@@H](OC(C)=O)CC[C@H]3[C@@H]1CC2 | 28.7 µM | 
36 | CC(=O)c1ccc2c(c1)N(CCCN1CCN(CCO)CC1)c1ccccc1C2 | 31.8 µM | 
37 | C[C@@H](Oc1ccc2[nH]nc(/C=C/c3cnn(CCO)c3)c2c1)c1c(Cl)cncc1Cl | 4.33 µM | 0.756 µM
38 | COc1cc(NCC2COc3c(ccc(OC)c3OC)C2=O)c([N+](=O)[O-])cc1OC (centres undefined) | > 100 µM | 
39 | Cc1nc2c(n1CCN(C)C)C(=O)c1ccccc1C2=O | 88.3 µM | 
40 | COc1ccc(/C=C/C(=O)c2cc3c(N)c(C(=O)Nc4ccccc4C)sc3nc2C)cc1 | > 50 µM | 2.14 µM
41 | CC(=O)N/N=C1/CC[C@@]2(C)C(=CC[C@H]3C4CCC(C(C)CCCC(C)C)[C@@]4(C)CCC32)C1(C)C (some centres undefined) | > 100 µM | 
42 | COC(=O)NC(=O)c1cn(CCCOC(=O)CCCCCCCCC(=O)OCCCn2cc(C(=O)NC(=O)OC)c(=O)[nH]c2=O)c(=O)[nH]c1=O | > 100 µM | 
43 | CCc1cccc(CC)c1NC(=O)C1=C(C)NC(C)=C(C(=O)Nc2c(CC)cccc2CC)C1c1ccc2c(c1)OCO2 | 30.8 µM | 
44 | O=[N+]([O-])c1ccc2c(c1)nc(Cc1ccc(Cl)cc1)n2C[C@@H]1CCCN2CCCCC12 (some centres undefined) | > 43.6 µM | 
45 | COC1C(O)C(C)OC(OC2CC3CCC4C(CCC5(C)C(C6=CC(=O)OC6)CCC45O)C3(O)C(OC(C)=O)C2)C1O (centres undefined) | 10.1 µM | 
46 | CC(C)(CC#N)c1cc(CC(C)(C)c2cc(CC(C)(C)c3cc(C(C)(C)C4(C)OCCO4)no3)no2)no1 | > 100 µM | 
47 | Cc1nc2cc(Nc3nc(Nc4ccc(F)cc4)nc(N4CCN(C)CC4)n3)ccc2n1Cc1ccccc1 | 4.61 µM | 2.19 µM
48 | COc1cc(-c2cc(/C=C3\C(=O)Nc4ccccc43)[nH]n2)cc(OC)c1OC | 18.6 µM | 4.74 µM
49 | COC(=O)c1nc(-c2nc(CCNC(=O)OC(C)(C)C)sc2Cl)sc1Cl | > 100 µM | 
50 | Nc1ccc2ccc(NS(=O)(=O)N3CCCCC3)cc2c1 | > 100 µM | 1.15 µM
51 | N#C/C(N)=C(\C#N)N=Cc1csc2ccccc12 | > 100 µM | 41 µM
52 | O=C(O)c1cc(O)c2c(c1)C([C@@H]1c3cccc(O)c3C(=O)c3c(O)cc(C(=O)O)cc31)c1cccc(O)c1C2=O (some centres undefined) | > 100 µM | 
53 | C1=C(c2ccccc2)SC=C(c2ccccc2)S1 | > 100 µM | 
54 | Cn1c2ccccc2c2nc3ccccc3c(Cl)c21 | > 100 µM | 
